# In PubChem BioAssay AID485344 (National Center for Advancing Translational Sciences (NCATS), 2010):
# The whole screen tested about 340,000 compounds, of which about 6,900 (2%) were called active. No stated cut-off is given here; in the data, active means inhibition above about 30%; inactive means below that, where a call was filed. Only a part is listed here, and it is no random draw. Where no call is shown, the source filed none.
# Molecular target: D(2) dopamine receptor (Homo sapiens) (UniProt P14416)
# Experiment: HTS Assay for Allosteric Antagonists of the Human D2 Dopamine Receptor: Primary Screen for Antagonists; further: 0% is about no effect
# Conditions: HEK293 TREx D2 cells, calcium flux, dopamine EC80; at 10 µM; stronger effect = higher value
# Procedure, shortened: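 Antagonism is scored as inhibition of an EC80 dopamine-evoked calcium signal in a force-coupled, tetracycline-inducible HEK293 T-REx D2 line, with compound present 180 s before agonist.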
# UniProt P14416, sequence (P14416 whole entry, looked up): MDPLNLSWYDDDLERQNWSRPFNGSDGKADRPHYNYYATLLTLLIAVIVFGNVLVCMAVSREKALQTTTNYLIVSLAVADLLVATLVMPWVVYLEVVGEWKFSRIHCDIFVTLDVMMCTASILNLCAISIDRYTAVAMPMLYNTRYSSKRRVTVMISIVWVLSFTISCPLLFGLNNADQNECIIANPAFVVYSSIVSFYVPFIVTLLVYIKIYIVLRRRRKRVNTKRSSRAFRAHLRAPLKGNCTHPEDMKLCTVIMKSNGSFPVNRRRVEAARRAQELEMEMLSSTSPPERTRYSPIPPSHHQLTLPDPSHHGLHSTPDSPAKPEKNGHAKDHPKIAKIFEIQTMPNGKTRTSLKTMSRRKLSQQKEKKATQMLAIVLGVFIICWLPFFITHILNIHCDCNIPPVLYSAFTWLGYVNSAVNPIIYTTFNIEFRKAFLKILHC
row,SMILES,inhibition
1,CCc1ccccc1NC(=O)c1sc2nc(C)cc(COC)c2c1N,-0.769%
2,CC(C)(C)C1CCc2nc(NC(=O)c3ccc([N+](=O)[O-])cc3)sc2C1 (stereo not drawn),1.74%
3,Cc1ccc(C(=O)O)cc1NC1(c2ccccc2)C(=O)c2ccccc2C1=O,10.3%
4,COc1ccc2oc(-c3ccc(C)c(NC(=O)c4ccc(-c5ccccc5[N+](=O)[O-])o4)c3)nc2c1,1.71%
5,Cc1cccc(-c2nc3c(cnn3-c3ccccc3)c(=O)n2-c2ccc(Br)cc2)c1,-3.41%
6,Cc1c(Cl)cccc1NC(=O)CSc1nc2ncccc2o1,9.74%
7,OCC1(CCc2ccccc2)CCCN(CCCc2ccccc2)C1 (stereo not drawn),active: 76.4%
8,CCn1ccc2c(OCC(=O)NCc3ccccc3)cccc2c1=O,4.03%
9,CCCN1CCN(c2cc3c(cc2F)c(=O)c(S(=O)(=O)c2ccc(CC)cc2)cn3CC)CC1,-16%
10,Cc1ccc(S(=O)(=O)c2[nH]c(-c3ccccc3)nc2SCCC(=O)O)cc1,9.01%
11,Cc1cccc(N(Cc2cc3ccccc3[nH]c2=O)C(=O)c2cccc(Cl)c2)c1,-4.25%
12,Cc1ccc(N2CC(NC(=O)CCc3ccccc3)CC2=O)cc1C (stereo not drawn),19.8%
13,CCCn1c(=N)n(CC(O)COc2ccccc2OC)c2ccccc21 (stereo not drawn),-1.37%
14,O=C(c1ccco1)N1CCN(Cc2ccc(F)cc2)CC1,active: 57.6%
15,COc1ccccc1Nc1nc(-c2sc(N)nc2C)cs1,active: 37.7%
16,Cc1nn(CC(=O)N2CCN(c3cccc(C(F)(F)F)c3)CC2)c(=O)c2cc3sccc3n12,15.6%
17,CCOc1ccc(NC(=O)c2c(Nc3ccccc3C)sc(C(=O)c3ccc(Cl)cc3)c2N)cc1,1.95%
18,CCc1ccc(Sc2cc(C(=O)O)c3ccccc3n2)cc1,6.09%
19,COc1ccc(-n2nc(C(=O)N(C)c3cc(Cl)ccc3OC)c3c4ccccc4n(C)c3c2=O)cc1,-9.72%
20,COc1ccc(Cc2noc(-c3ccccc3)n2)cc1OC,active: 33.2%
21,CCOc1ccccc1NC(=O)C1=C(C)Nc2ncnn2C1c1ccc(NC(C)=O)cc1 (stereo not drawn),-23.7%
22,Cc1ccc(Cc2nc3ccccc3nc2SCC(=O)N2CCN(c3ccccc3)CC2)cc1,4.69%
23,Cc1nn(CCCC(=O)NCc2ccc(OC(C)C)cc2)c(=O)c2c1sc1ccccc12,-0.652%
24,COc1ccc(S(=O)(=O)c2nnn(-c3ccccc3F)c2C)cc1,-10.9%
25,N#CC1=C2SCN(C3CCCCC3)CN2C(=O)CC1c1c(F)cccc1Cl (stereo not drawn),9.77%

row,SMILES,inhibition
1,O=[N+]([O-])c1cc(-c2nc(-c3ccco3)no2)ccc1NCc1ccccc1,23.4%
2,O=C(CCN1CCN(C/C=C/c2ccccc2)CC1)Nc1ccccc1Cl,active: 31.9%
3,CCOC(=O)N1CCC(NC(=O)c2ccc(CS(=O)c3cccc(Cl)c3)o2)CC1 (stereo not drawn),active: 54.1%
4,CCCCn1c(CCC(=O)O)ccc1-c1cccs1,active: 40.4%
5,O=C(NCCCc1nc2ccccc2n1Cc1ccccc1Cl)c1ccco1,-23.2%
6,CCN(c1ccc(Cl)cc1)S(=O)(=O)c1nnc(NC(=O)c2ccccc2C)s1,0.938%
7,CC(CNC(=O)C1CCN(C(=O)N2CCOc3ccc(Cl)cc32)CC1)c1ccccc1 (stereo not drawn),-10.9%
8,COc1ccc(-c2onc(C)c2C)cc1S(=O)(=O)NCc1ccc(C)o1,12.7%
9,COc1ccc(NC(=O)CSc2nc3ccccc3n2CC(=O)N2CCCCC2C)cc1 (stereo not drawn),-6.26%
10,COc1ccc(CCCc2nnc(SCC(=O)Nc3cccc(C)c3)o2)cc1,-3.98%
11,Cc1nn(CCC(=O)NCc2ccc(Cl)cc2)c(=O)c2nn(-c3ccccc3)c(C)c12,6.42%
12,Cc1c(Cl)cccc1NC(=O)CC(c1ccc(F)cc1)N1Cc2ccccc2C1=O (stereo not drawn),2.6%
13,Cc1ccc2[nH]cc(C(c3ccccc3)c3ccc(C)s3)c2c1 (stereo not drawn),-5.34%
14,CCC(C)NC(=O)CCc1c(C)nc2c(c(C)nn2-c2ccc(C)cc2)c1C (stereo not drawn),-3.5%
15,CCOc1cccc(CC(=O)NCc2ccc3c(c2)CCN3C(C)=O)c1OCC,-13.3%
16,CCOC(=O)c1ccc(-c2ccc(/C=C(\C#N)c3nc4ccc(C)cc4[nH]3)o2)cc1,-27.7%
17,COCC(C)NC(=O)c1cc2c(=O)n3cccc(C)c3nc2s1 (stereo not drawn),4.11%
18,Cc1ccc2c(c1)C(Cc1ccccc1F)C(=O)N2 (stereo not drawn),9.34%
19,CCn1cc(CCC(=O)NCc2ccc(C)cc2)c2ccccc21,-6.17%
20,COc1ccc(CCNC(=O)C(CC(C)C)N2Cc3ccccc3C2=O)c(OC)c1OC (stereo not drawn),0.999%
21,COC(=O)CN(c1ccc(F)cc1)S(=O)(=O)c1ccccc1,active: 47.5%
22,COc1cc2c(=O)n(Cc3ccccc3Cl)c(=O)n(CC(=O)Nc3ccc(C)c(C)c3)c2cc1OC,-1.81%
23,Cc1cccc(C(=O)Nc2cc(-c3nc4cccnc4s3)ccc2C)c1,-3.41%
24,COc1ccc(C)cc1NC(=O)C1CCN(S(=O)(=O)c2ccc3[nH]c(=O)oc3c2)CC1,12.7%
25,O=C(NCc1ccccc1)C1CCCN(S(=O)(=O)c2cccc3nsnc23)C1 (stereo not drawn),-0.657%

row,SMILES,inhibition
1,O=C1CN(C(=O)COc2ccc(Cl)cc2)C(c2ccccc2)c2cc(Br)ccc2N1 (stereo not drawn),11.4%
2,CCOc1ccc(NC(=O)CN2C(=O)CC(C)Sc3ccccc32)cc1 (stereo not drawn),11%
3,CCn1cc2nc(SCC(=O)Nc3ccc(OC)c(OC)c3)n(Cc3ccc(Cl)cc3)c(=O)c2n1,17%
4,Cc1cn2c(=O)cc(COC(=O)c3cccc(NC(=O)c4ccc(C(C)(C)C)cc4)c3)nc2s1,8.43%
5,CC(=O)c1cccc(NC(=O)C2CCN(C(=O)c3cnn(-c4ccccc4)c3-n3cccc3)CC2)c1,18.9%
6,COc1ccc(-c2oc3ncn4nc(-c5ccccc5O)nc4c3c2-c2ccc(OC)cc2)cc1,-8.74%
7,CCOc1ccc(-n2c(/C=C/c3cccc(F)c3)nc3cc(OC)c(OC)cc3c2=O)cc1,-3.78%
8,COc1ccc(-c2cc(-c3ccc(F)cc3)nc3c2COc2ccc(F)cc2-3)cc1,3.57%
9,O=C(O)c1ccc2nc3c(nc2c1)-c1ccccc1C3=O,active: 34.1%
10,Cc1ccccc1-c1nc2scc(CCNS(=O)(=O)c3ccccc3)n2n1,5.89%
11,Cc1nn2c(=O)cc(COC(=O)c3cccc(NC(=O)CCc4ccccc4)c3)nc2s1,21.8%
12,CCCCC(=O)NCc1nc2cccnc2n1Cc1ccc(OC)cc1,-15.8%
13,COc1cccc(Nc2ccc3cc(S(=O)(=O)N4CCC(C)CC4)ccc3n2)c1,-3.42%
14,CCOC(=O)c1ccc(N2CCN(c3cc(C)ccc3C)CC2)c(NC(=O)Nc2ccc(CC)cc2)c1,-1.74%
15,CCCOc1cccc(C(=O)Nc2cccc(-c3nc4ncccc4o3)c2C)c1,12.5%
16,CC1(C)CC(=O)C2=C(C1)N1C(=C(C#N)C2c2ccccc2Cl)N=C(N)c2ccccc21 (stereo not drawn),active: 35.8%
17,CCOC(=O)COc1ccc(CC)cc1C(=O)c1ccn2nc(-c3ccccc3)cc2n1,-19.2%
18,COc1ccccc1C1CCN(Cc2ccc(Cl)c(Cl)c2)CC1,active: 83.7%
19,Cc1ccc(Cl)cc1N1CCN(C(=O)c2ccc(NC(=O)c3nsc4ccccc34)cc2)CC1,10.8%
20,COC(=O)C(Cc1c[nH]c2ccccc12)NC(=O)COc1cccc(C)c1 (stereo not drawn),7.01%
21,COC(=O)c1sccc1S(=O)(=O)N1CCN(c2cc(Cl)ccc2C)CC1,14.1%
22,Cc1nn(S(=O)(=O)c2ccc(C(C)(C)C)cc2)c(C)c1S(=O)(=O)N1CCCCCC1,0.754%
23,Cc1ccc(-c2n[nH]c3c2C(c2ccc(C(C)(C)C)cc2)NC3=O)cc1 (stereo not drawn),20%
24,COCCNC(=O)CCn1c(=O)c2cc(OC)c(OC)cc2n(CC(=O)Nc2ccc(Cl)cc2F)c1=O,-14.3%
25,Cc1ccc(NC(=O)c2oc3ccc(S(=O)(=O)N4CCC5(CC4)OCCO5)cc3c2C)cc1C,-27.2%

row,SMILES,inhibition
1,Cc1ccc(OCC(=O)Nc2cccc(-c3nc4ccccc4s3)c2)cc1,-11.8%
2,CCOc1ccc(NC(=O)C2CC(=O)NC(=Nc3ccc(Cl)c(Cl)c3)S2)cc1 (stereo not drawn),-5.27%
3,Cc1c(C(=O)NCc2ccccc2)sc2nc3n(c(=O)c12)CCCCC3,5.16%
4,COc1cccc(CNC(=O)c2sc3nc(C)cc(C)c3c2-n2cccc2)c1OC,-8.65%
5,CCOC(=O)c1ccc(NC(=O)C2CCCN(c3ncnc4onc(-c5ccc(F)cc5)c34)C2)cc1 (stereo not drawn),-12%
6,COc1cccc(/C=C/c2nc(C#N)c(NCCc3ccccc3)o2)c1,-21.6%
7,COc1ccccc1CCC(=O)OCC(=O)Nc1cc(S(=O)(=O)N2CCOCC2)ccc1C,active: 33%
8,Clc1cccc(N2CCN(c3nc4ccccc4n4nnnc34)CC2)c1,7.5%
9,COc1ccc(C(=O)Nc2ccc3oc(-c4cccnc4)nc3c2)cc1,9.51%
10,COc1ccccc1-c1nc(SCC(=O)NCc2ccc(C)cc2)c2c(=O)n(C)c(=O)n(C)c2n1,10.5%
11,Cc1ccc(NC(=O)CNC2CCCCC2)cc1Cl,active: 30.3%
12,Cc1cccc(CN2C(=O)N(c3ccc(C(C)C)cc3)S(=O)(=O)c3ccccc32)c1,6.49%
13,O=C(COc1ccccc1F)Nc1ccc2oc(-c3cccc(Cl)c3)nc2c1,2.9%
14,Cc1ccc(-c2ccc(=O)n(CC(=O)Nc3ccc(C)cc3Cl)n2)cc1,8.57%
15,Cc1cc(=O)[nH]c2nnc(SCc3ccc(F)cc3)n12,-3.85%
16,O=C(CC(c1cccs1)N1Cc2ccccc2C1=O)Nc1ccc(F)c(F)c1 (stereo not drawn),-17.6%
17,COc1ccc(N2C(=O)CS(=O)(=O)C23C(=O)N(Cc2cccc(F)c2)c2ccccc23)cc1OC (stereo not drawn),4.78%
18,COc1ccc(Cn2c(SCC(=O)NCc3ccc(Cl)cc3)nc3ccsc3c2=O)cc1,-7.7%
19,CCOC(=O)c1ccc(-n2c(CCC(=O)O)ccc2-c2ccc(Br)cc2)cc1,-13.4%
20,O=C(NCc1cccs1)c1ccc(Cn2c(SCc3ccccc3)nc3cccnc32)cc1,13.1%
21,O=C(Nc1c(C(=O)N2CCN(c3ccccc3)CC2)oc2ccccc12)c1ccc(Br)o1,-9.77%
22,Fc1ccccc1Cn1cnc(NC(=S)NCCc2ccccc2)n1,active: 40.1%
23,Cc1cc(Cl)ccc1OCC(=O)Nc1c(Cl)ccc2nsnc12,19.5%
